From PubChem BioAssay AID1030 (National Center for Advancing Translational Sciences (NCATS), 2008)
The campaign covered roughly 220,000 compounds. About 16,000 (7.3%) were called active. The inconclusive results got no clear call from the source; some entries with a clear call stand among them for comparison. Calls follow the shape of the dose curve; as a rule, active = well fitted inhibition curve with a large enough effect (not every such curve was filed as active); inconclusive = small, poorly fitted or top-dose-only effect, or another doubt; inactive = no such curve, though single readings can be large or run the other way. No potency is given beside an inconclusive call; the fits are too rough.
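For activity, negative = inhibition in this document: plate controls were no enzyme wells and a reference inhibitor.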
Potency is read from the fitted curve at half-maximal effect; tags tell the direction and shape of the fitted curve.

These compounds were tested against Aldehyde dehydrogenase 1A1 (Homo sapiens) (UniProt P00352) (assay: qHTS Assay for Inhibitors of Aldehyde Dehydrogenase 1 (ALDH1A1)). Conditions: Purified ALDH1A1, NADH fluorescence, propionaldehyde substrate; series mostly up to 75.3 µM; activity, negative = inhibition: at the top concentration.
Chain of UniProt P00352 (P00352 whole entry, looked up): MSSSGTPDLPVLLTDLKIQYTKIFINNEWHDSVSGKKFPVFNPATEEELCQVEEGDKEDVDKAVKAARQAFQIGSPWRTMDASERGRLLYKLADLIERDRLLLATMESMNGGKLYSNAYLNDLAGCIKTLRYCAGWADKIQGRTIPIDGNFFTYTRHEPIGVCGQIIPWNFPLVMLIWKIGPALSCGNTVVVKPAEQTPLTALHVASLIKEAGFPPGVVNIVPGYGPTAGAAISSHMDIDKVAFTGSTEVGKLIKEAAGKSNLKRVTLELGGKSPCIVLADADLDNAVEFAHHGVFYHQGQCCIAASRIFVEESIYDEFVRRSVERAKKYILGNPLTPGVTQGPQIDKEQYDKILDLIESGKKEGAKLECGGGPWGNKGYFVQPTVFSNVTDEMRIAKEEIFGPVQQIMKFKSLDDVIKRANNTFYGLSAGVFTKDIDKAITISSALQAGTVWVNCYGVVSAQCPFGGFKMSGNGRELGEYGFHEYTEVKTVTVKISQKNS
In the case of `Cc1ccc(NC(=O)N/C=C/c2ccco2)cc1`, the Potency is reported as active: 7.94 µM. For `CCn1nnc(NC(=O)c2ccc(-c3ccc(Cl)cc3)o2)n1`, the Potency was inconclusive [inhibitor, partial curve]. With `Cn1nc(-c2ccc(N3CCOCC3)c(NS(=O)(=O)c3ccc(Cl)cc3)c2)c2ccccc2c1=O` the “activity, negative = inhibition” value was inactive: -10%. With `COc1ccc(CCNC(=O)c2ccc(CS(=O)(=O)c3ccc(Br)cc3)o2)cc1OC` the “activity, negative = inhibition” value was inactive: 21.2%. With `O=C1COc2ccc(C(=O)COC(=O)c3cnc(Cl)c(Cl)c3)cc2N1` the Potency was active: 1.26 µM. In the case of `O=c1c2cc(NC(=S)NCCN3CCCCCC3)ccc2nc2n1CCCCC2`, the Potency is reported as active: 20 µM. `CC(C)CC(=O)NS(=O)(=O)c1ccc(N)cc1` was tested, and the Potency was active: 10 µM. `Cc1occc1C(=O)Nc1ccc(S(N)(=O)=O)cc1` was tested, and the Potency was inconclusive [inhibitor, single point]. In the case of `CCOC(=O)C1=C(C)NC(=O)NC1/C=C/c1ccccc1OC` (stereo unspecified), the “activity, negative = inhibition” value is reported as inactive: -2.53%. In the case of `c1ccc(Cc2nnc3sc(C4COc5ccccc5O4)nn23)cc1` (stereo unspecified), the Potency is reported as active: 25.1 µM. With `COc1ccc(CCNC(=O)C2CCN(S(=O)(=O)c3ccc(-n4cnnn4)cc3)CC2)cc1OC` the Potency was inconclusive [inhibitor, single point]. `CNC(=O)CO/N=C/c1ccc(N(C)C)cc1` was tested, and the Potency was inconclusive [inhibitor, single point]. `CC(C)(C)OC(=O)N[C@@H](Cc1ccccc1)c1nnc(S(=O)(=O)Cc2cccc(F)c2)o1` was tested, and the Potency was inconclusive [inhibitor, partial curve]. `Cc1ccc2oc(-c3ccc(C)c(NC(=O)Cc4cccs4)c3)nc2c1` was tested, and the Potency was inconclusive [inhibitor, full curve]. In the case of `O=C(Nc1ccc(S(=O)(=O)Nc2nccs2)cc1)C1CC(=O)N(c2ccccc2)C1` (stereo unspecified), the Potency is reported as inconclusive [inhibitor, single point]. In the case of `COc1cccc(CN(C)CC(=O)NCc2ccccc2Cl)c1OC`, the “activity, negative = inhibition” value is reported as inactive: 0.824%. For `Cc1cccc(OC(=O)C2C(c3ccccc3)C(C(=O)O)C2c2ccccc2)c1` (stereo unspecified), the Potency was inconclusive [inhibitor, partial curve]. In the case of `O=C(Cc1c(F)cccc1Cl)Nc1ccc(S(=O)(=O)NCC2CCCO2)cc1` (stereo unspecified), the “activity, negative = inhibition” value is reported as inactive: -8.64%. `CCn1c(SCC(=O)N2CCN(c3ccc(F)cc3)CC2)nc2ccccc2c1=O` was tested, and the Potency was active: 25.1 µM. For `Cc1c(S(=O)(=O)O)oc2c1C(=O)C(=O)c1c-2ccc2c1CCCC2(C)C`, the Potency was inconclusive [inhibitor, partial curve]. For `CCCn1nnc2sc3c(c2c1=O)CCC(C)C3` (stereo unspecified), the Potency was active: 6.31 µM. For `CCOC(=O)c1ccccc1NS(=O)(=O)c1ccc(S(=O)(=O)N2CCCC2)cc1`, the Potency was active: 22.4 µM. For `COc1cccc(NC(=O)Nc2ccc3c(c2)N(C)C(=O)CS3)c1`, the “activity, negative = inhibition” value was inactive: -4.89%. In the case of `CC(Sc1ccc2nnc(-c3ccc(F)cc3)n2n1)C(=O)O` (stereo unspecified), the Potency is reported as inconclusive [inhibitor, single point]. With `O=C(c1n[nH]c(=O)c2ccccc12)N1CCN(c2ccccc2)CC1` the Potency was inconclusive [inhibitor, partial curve]. In the case of `O=C(O)C1SCCN1S(=O)(=O)c1ccc2ccccc2c1` (stereo unspecified), the Potency is reported as inconclusive [inhibitor, partial curve]. With `CCOC(=O)c1cc(NC(=O)Nc2ccc(Br)cc2)c(C)nc1C` the “activity, negative = inhibition” value was inactive: 4.87%. In the case of `O=C(Nc1ccc(N2CCOCC2)c(Cl)c1)c1cccnc1Cl`, the Potency is reported as inconclusive [inhibitor, single point]. For `O=C(CCC(=O)c1ccc(F)cc1)Nc1ccccc1Cl`, the “activity, negative = inhibition” value was inactive: -1.46%. With `OC[C@@H]1[C@@H](c2ccccc2)C(c2ccc(F)cc2)=NN1c1ccccc1` the Potency was inconclusive [inhibitor, partial curve]. With `N#Cc1c(SCC(=O)Nc2ccccc2)nsc1SCC(=O)Nc1ccccc1` the Potency was inconclusive [inhibitor, single point]. For `OCCNc1nc(-c2ccccc2)c2cc(Cl)ccc2n1`, the Potency was inconclusive [inhibitor, partial curve]. `Cc1ccc(N/C=C(\C#N)S(=O)(=O)c2ccccc2)cc1` was tested, and the “activity, negative = inhibition” value was inactive: 7.28%. For `COc1ccccc1/C=C\C=N\n1c(-c2ccc(Cl)cc2)n[nH]c1=S`, the Potency was active: 35.5 µM. In the case of `c1ccc(COc2ccc(OCCCCN3CCCC3)cc2)cc1`, the Potency is reported as inconclusive [inhibitor, single point]. With `O=C(/C=C/c1ccco1)NCC1CCCO1` (stereo unspecified) the Potency was active: 22.4 µM. In the case of `COc1ccc(CNc2ccc3c(c2)CCC3)cc1OC`, the Potency is reported as inconclusive [inhibitor, single point]. In the case of `CC(=O)Nc1ccc(S(=O)(=O)N2CCN(CC(=O)NC3CCCC3)CC2)cc1`, the Potency is reported as inconclusive [inhibitor, partial curve]. In the case of `CCN(CC(=O)NC1CCS(=O)(=O)C1)C(=O)C(c1ccccc1)c1ccccc1` (stereo unspecified), the Potency is reported as inconclusive [inhibitor, single point]. For `CC1CCN(C(=O)/C(=C\c2cccs2)NC(=O)c2ccccc2)CC1`, the Potency was inconclusive [inhibitor, partial curve, poor fit]. With `CC1(C)CC(c2nc(-c3ccc(Br)cc3)cs2)CCS1` (stereo unspecified) the Potency was inconclusive [inhibitor, single point]. For `COCCNC(=O)/C(C#N)=C/c1ccc(O)c([N+](=O)[O-])c1`, the Potency was inconclusive [inhibitor, partial curve]. For `COC(=O)c1ccc(-c2nc3ccc(C)cc3o2)cc1`, the Potency was inconclusive [inhibitor, full curve]. `O=C(CNC1CCCCC1)Nc1cc(S(=O)(=O)N2CCOCC2)ccc1Cl` was tested, and the “activity, negative = inhibition” value was inactive: -0.147%. `COc1ccccc1NC(=O)c1c(NC(=O)c2ccco2)sc2c1CCC2` was tested, and the Potency was inconclusive [inhibitor, single point]. For `COc1cc(CN2CCC(C(=O)N3CCCC(C)C3)CC2)cc(Br)c1O` (stereo unspecified), the Potency was inconclusive [inhibitor, single point]. For `O=C(/C(=N/N=C/c1ccc(O)c(O)c1O)c1ccccc1)c1ccccc1`, the “activity, negative = inhibition” value was inactive: 6.33%. `CN1CN(C)c2cccc3cccc1c23` was tested, and the Potency was inconclusive [inhibitor, partial curve]. `COc1ccc(C)cc1-n1nnnc1SCC(=O)c1ccc2c(c1)OCCO2` was tested, and the Potency was active: 11.2 µM. `COc1ccc(NC(=S)N(CCN2CCOCC2)Cc2cc3cc4c(cc3[nH]c2=O)OCCO4)cc1` was tested, and the Potency was inconclusive [inhibitor, single point]. `c1ccc2c(NC3CCNCC3)nc(-c3ccoc3)nc2c1` was tested, and the Potency was inconclusive [inhibitor, single point]. `Cc1ccsc1C(=O)OCC(=O)N1CCc2ccccc2C1` was tested, and the Potency was inconclusive [inhibitor, partial curve]. `O=C(c1c[nH]c2ccc(F)cc2c1=O)N1CCCCCC1` was tested, and the Potency was inconclusive [inhibitor, single point]. For `COc1ccccc1N1CCN(C(=O)/C=C/c2ccco2)CC1`, the “activity, negative = inhibition” value was inactive: -4.56%. In the case of `COC(=O)/C=C1\SC(N2CCOCC2)=C(c2ccc(OC)cc2)C1=O`, the Potency is reported as active: 7.94 µM. In the case of `Cc1cc(C)c2c(-n3cccc3)c(C(=O)O)sc2n1`, the Potency is reported as active: 22.4 µM. For `CSc1nc2n(n1)C(c1cccs1)C1=C(CCCC1=O)N2` (stereo unspecified), the Potency was inconclusive [inhibitor, single point]. `Cc1cc(Nc2ccccc2F)n2ncnc2n1` was tested, and the “activity, negative = inhibition” value was inactive: 8.19%. `Cc1ccc(NC(=O)C(C)OC(=O)CCNS(=O)(=O)c2ccc(C)cc2)cc1` (stereo unspecified) was tested, and the Potency was inconclusive [inhibitor, partial curve]. With `CC(=O)NC(=O)COC(=O)/C=C/c1c(C)nn(Cc2c(Cl)cccc2Cl)c1Cl` the “activity, negative = inhibition” value was inactive: -3.44%. For `COc1ccc(NC(=O)C2CCN(S(=O)(=O)c3ccc(Br)s3)CC2)cc1OC`, the “activity, negative = inhibition” value was inactive: -0.701%. With `CCCCCN(C(=O)NC(=O)Nc1ccccc1C)S(=O)(=O)c1ccccc1` the “activity, negative = inhibition” value was inactive: -12.3%. `COc1ccc(C2C(C#N)=C(N)Oc3c2c(C)nn3-c2ccccc2)cc1Cn1nc(C)c([N+](=O)[O-])c1C` (stereo unspecified) was tested, and the Potency was active: 5.01 µM. In the case of `O=[N+]([O-])c1cccc(-c2nc3ccc([N+](=O)[O-])cc3[nH]2)c1`, the “activity, negative = inhibition” value is reported as inactive: -11.2%. `CCOC(=O)c1cc(C)n(CCc2ccccc2)c1C` was tested, and the “activity, negative = inhibition” value was inactive: -12.9%. With `Cc1c(OCC(=O)OC(C)(C)C)ccc2c3c(c(=O)oc12)CCC3` the Potency was inconclusive [inhibitor, partial curve]. For `CCC1CCCCN1C(=O)c1sc2nc(C)nc(N(CC)CC)c2c1C` (stereo unspecified), the “activity, negative = inhibition” value was inactive: 0.546%. For `CC(=O)C1=C(C)Nc2ncnn2C1c1ccc(Cl)cc1Cl` (stereo unspecified), the Potency was inconclusive [inhibitor, single point]. For `CN(C)S(=O)(=O)c1cccc(NC(=S)NCCCn2ccnc2)c1`, the “activity, negative = inhibition” value was inactive: -0.85%. For `COC(=O)CSC(C(=O)Nc1ccc(C)c(C)c1)c1ccccc1` (stereo unspecified), the Potency was active: 10 µM. `N#CC1=C2SCC(O)(c3ccccc3)N2C(=O)CC1c1cccs1` (stereo unspecified) was tested, and the Potency was active: 0.0355 µM. For `CC(=O)CC1(O)C(=O)N(CN2CCN(c3ccccc3)CC2)c2ccccc21` (stereo unspecified), the “activity, negative = inhibition” value was inactive: 4.85%. With `Cc1nnc(SCc2ccccc2C#N)n1-c1ccccc1` the Potency was inconclusive [inhibitor, single point]. For `COc1cc(/C=N/Nc2ccccn2)ccc1OCC(C)C`, the Potency was inconclusive [inhibitor, single point]. `COc1ccc(C(=O)c2ccc(OC)c3cccc(O)c23)cc1OC` was tested, and the Potency was inconclusive [inhibitor, single point]. In the case of `CN(C)S(=O)(=O)c1cccc(-c2cn3ccccc3n2)c1`, the Potency is reported as inconclusive [inhibitor, single point].
